Experimental findings from patent publication US20250288643A1 (FBD BIOLOGICS, published 2025) are described below.

Assay [1] has as its target T1, CD47-ECD-His (Homo sapiens (Human), UniProt Q08722 in part). The experiment in a line: Octet, CD47-ECD-His loaded, SET1.
The target in assay [2] is T2, human CD47 on cells (human, UniProt Q08722).
T2 construct: whole, on cells; also called hCD47; CD47 tf CHO-S cells
The experiment in a line: flow cytometry blocking, CD47 tf CHO-S cells + biotin-SIRPα Fc 1 µg/mL, avidin-PE.

The target in assay [3] is T2, human CD47 on cells. Nature of the assay: flow cytometry, human RBC (015), anti-hFc-PE.
Assay [4] has as its target T2, human CD47 on cells. The experiment in a line: flow cytometry, Jurkat cells, anti-hFc-PE.
Assay [5] addresses T2, human CD47 on cells. Nature of the assay: flow cytometry, Raji cells, anti-hFc-PE.
For assay [6], the target named is T2, human CD47 on cells. The experiment in a line: flow cytometry, human RBC (024), anti-hFc-PE.
Assay [7] deals with T2, human CD47 on cells. Nature of the assay: cell-based or functional assay.
Assay [8] addresses T1, CD47-ECD-His. Nature of the assay: Octet, CD47-ECD-His loaded, SET2.
The target in assay [9] is T2, human CD47 on cells. Nature of the assay: flow cytometry blocking, FaDu cells + biotin-SIRPα Fc 1 µg/mL, avidin-PE.
Assay [10] deals with T2, human CD47 on cells. The experiment in a line: cell-based or functional assay. This is another data set of the same source.
The target of assay [11] is T2, human CD47 on cells. The experiment in a line: cell-based or functional assay. The source holds these as a separate data set.
The target of assay [12] is T3, mouse CD47 on EMT-6 cells (mouse, UniProt Q61735 19-303).
T3 construct: whole, on cells; also called cells expressing mouse CD47
T3 sequence (looked up): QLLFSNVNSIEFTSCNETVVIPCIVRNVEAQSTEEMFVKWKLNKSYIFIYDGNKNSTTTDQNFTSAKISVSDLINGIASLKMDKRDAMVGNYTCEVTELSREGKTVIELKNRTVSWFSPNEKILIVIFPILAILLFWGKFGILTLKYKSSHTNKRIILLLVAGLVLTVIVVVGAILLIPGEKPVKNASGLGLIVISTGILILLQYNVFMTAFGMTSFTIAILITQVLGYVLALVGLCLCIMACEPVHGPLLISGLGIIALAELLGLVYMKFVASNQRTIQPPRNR
The experiment in a line: flow cytometry, EMT-6 cells, anti-hFc-PE.

In assay [13] the target is T2, human CD47 on cells. The experiment in a line: flow cytometry, Raji cells.
Assay [14] has as its target T2, human CD47 on cells. Nature of the assay: flow cytometry on human platelets (FIG. 11D).
Assay [15] addresses T2, human CD47 on cells. Nature of the assay: flow cytometry on human platelets, donor 1.

B1: hSIRPa_mt9 (Fc fusion)
IgV domain - IgG4 hinge - Fc: EEELQVIQPDKSVSVAAGESAILTCTVTSLWPVGPIQWFRGAGPARELIYNQKGQNFPRVTTVSESTKRFNMDFSISISNITPADAGTYYCVKFRKGSPDTEFKSGAGTELSVRAKPS[human IgG4 Fc with S228P (EU numbers) not listed]
notes: also called hSIRPα-Fc-mt9; hSIRPaG4_mt9
Turning to B1, in the assay with CD47-ECD-His [1], the “Fold (compared to SIRPa wt in IgG4)” value is 29, binding was put at a Kd of 0.139 nM, the koff was determined as 0.000144 s⁻¹ and the kon is 1.04e+06 M⁻¹ s⁻¹.

B2: hSIRPα-Fc-mt11 (Fc fusion)
chain: EEELQVIQPDKSVSVAAGESAILHCTVTSLLPVGPIQWFRGAGPARELIYNQKSKVFPRVTTVSESTKRRNMDFSISISNITPADAGTYYCVKFRKGSPDTEFKSGAGTELSVRAKPS[human IgG4 Fc with S228P (EU numbers) not listed]
notes: also called hSIRPα-mt11
Turning to B2, the “IC50 (read off the curve)” value with human CD47 on cells [2] is roughly 0.8 nM; with human CD47 on cells [9], roughly 0.5 nM. In addition, the “EC50 (read off the curve)” value with human CD47 on cells [3] was roughly 0.2 nM; in the assay with human CD47 on cells [4], roughly 0.4 nM; in the assay with human CD47 on cells [5], roughly 0.3 nM; with human CD47 on cells [6], roughly 0.2 nM. In addition, in the assay with human CD47 on cells [7], the “EC50 values for phagocytosis of Jurkat cells” value (from here on “EC50 values … of Jurkat cells”) is 0.24 nM. For the same molecule, in the assay with CD47-ECD-His [8], the “Fold (compared to SIRPa wt in IgG4)” value amounted to 3.81. Further, the affinity in the assay with CD47-ECD-His [8], expressed as Kd, was 1.35 nM. Moreover, the koff with CD47-ECD-His [8] was 0.000624 s⁻¹. Besides, the kon in the assay with CD47-ECD-His [8] came out at 463000 M⁻¹ s⁻¹.

B3: hSIRPα-Fc-mt13 (Fc fusion)
chain: EEELQVIQPDKSVSVAAGESAILHCTVTSLLPVGPIQWFRGAGPARELIYNQKDFLFPRVTTVSESTKRENRDFSISISNITPADAGTYYCVKFRKGSPDTEFKSGAGTELSVRAKPS[human IgG4 Fc with S228P (EU numbers) not listed]
notes: also called hSIRPα-mt13
Turning to B3, the “EC50 values for phagocytosis of Raji cells” value (“EC50 values … of Raji cells” below) in the assay with human CD47 on cells [10] turned out to be 0.09 nM. In addition, in the assay with human CD47 on cells [2], the “IC50 (read off the curve)” value is roughly 0.8 nM. The “EC50 values for phagocytosis of FaDu cells” value (“EC50 values … of FaDu cells” for short) with human CD47 on cells [11] stood at 0.26 nM. Besides, the half-maximal effective concentration (EC50 (read off the curve)) with human CD47 on cells [4] is roughly 0.4 nM. The binding result in assay [12] is listed as “binds”. Besides, the “EC50 (read off the curve)” value with human CD47 on cells [5] is roughly 0.3 nM. Further, the “EC50 values … of Jurkat cells” value in the assay with human CD47 on cells [7] worked out at 0.61 nM. Also, in the assay with CD47-ECD-His [8], the “Fold (compared to SIRPa wt in IgG4)” value came out at 13.3, the Kd stood at 0.387 nM, the koff was 0.000365 s⁻¹ and the kon was determined as 942000 M⁻¹ s⁻¹. Also, the “IC50 (read off the curve)” value with human CD47 on cells [9] was roughly 0.5 nM.

B4: hSIRPα-Fc-mt23 (Fc fusion)
chain: EEELQVIQPDKSVSVAAGESAILHCTLTSLTPVGPIQWFRGAGPARELIYNQKEGPFPRVTTVSESTKRGNMDFSISISNITPADAGTYYCVKFRKGSPDTEFKSGAGTELSVRAKPS[human IgG4 Fc with S228P (EU numbers) not listed]
notes: also called hSIRPα-mt23
With B4, the “EC50 (read off the curve)” value with human CD47 on cells [13] was roughly 0.2 nM. For the same molecule, in the assay with human CD47 on cells [14], the EC50 is roughly 0.434 nM.

B5: hSIRPα-Fc-mt14 (Fc fusion)
chain: EEELQVIQPDKSVSVAAGESAILHCTVTSLAPVGPIQWFRGAGPARELIYNQKLDSFPRVTTVSESTKRESMDFSISISNITPADAGTYYCVKFRKGSPDTEFKSGAGTELSVRAKPS[human IgG4 Fc with S228P (EU numbers) not listed]
notes: also called hSIRPα-mt14
In the case of B5, the “IC50 (read off the curve)” value with human CD47 on cells [2] was roughly 10 nM. Further, the “EC50 values … of Jurkat cells” value with human CD47 on cells [7] came to 22.1 nM. Moreover, in the assay with CD47-ECD-His [8], the “Fold (compared to SIRPa wt in IgG4)” value is 1.13, the Kd was 4.57 nM, the koff stood at 0.00545 s⁻¹ and the kon is 1.19e+06 M⁻¹ s⁻¹. In addition, the “IC50 (read off the curve)” value in the assay with human CD47 on cells [9] was roughly 20 nM.

B6: hSIRPα-Fc-mt6 (Fc fusion)
chain: EEELQVIQPDKSVSVAAGESAILHCTVTSLIPVGPIQWFRGAGPARELIYNQKNLIFPRVTTVSESGKRENMDFSISISNITPADAGTYYCVKFRKGSPDTEFKSGAGTELSVRAKPS[human IgG4 Fc with S228P (EU numbers) not listed]
notes: also called hSIRPα-mt6
As to B6, the “EC50 values … of Raji cells” value in the assay with human CD47 on cells [10] came to 15.9 nM. Moreover, the “IC50 (read off the curve)” value with human CD47 on cells [2] is roughly 30 nM. Further, in the assay with human CD47 on cells [11], the “EC50 values … of FaDu cells” value worked out at 18.2 nM. Further, in the assay with CD47-ECD-His [1], the “Fold (compared to SIRPa wt in IgG4)” value is 0.79, the Kd was 5.11 nM, the koff is 0.0084 s⁻¹ and the kon is 1.65e+06 M⁻¹ s⁻¹. In the assay with human CD47 on cells [7], the “EC50 values … of Jurkat cells” value turned out to be 18.7 nM. Moreover, the “IC50 (read off the curve)” value with human CD47 on cells [9] was roughly 50 nM.

B7: hSIRPα-Fc-mt8 (Fc fusion)
chain: EEELQVIQPDKSVSVAAGESAILHCTVTSLKPVGPIQWFRGAGPARELIYNQKRDTFPRVTTVSESTKRENRDFSISISNITPADAGTYYCVKFRKGSPDTEFKSGAGTELSVRAKPS[human IgG4 Fc with S228P (EU numbers) not listed]
notes: also called hSIRPα-mt8
For the molecule B7, the “EC50 values … of Raji cells” value with human CD47 on cells [10] is 0.08 nM. Further, in the assay with human CD47 on cells [2], the “IC50 (read off the curve)” value was roughly 0.8 nM. Moreover, the “EC50 values … of FaDu cells” value with human CD47 on cells [11] turned out to be 0.22 nM. Further, in the assay with human CD47 on cells [4], the “EC50 (read off the curve)” value is roughly 0.4 nM. Further, in the assay with CD47-ECD-His [1], the “Fold (compared to SIRPa wt in IgG4)” value worked out at 20.1, binding was put at a Kd of 0.201 nM, the dissociation rate constant (koff) amounted to 0.000222 s⁻¹ and the kon was 1.11e+06 M⁻¹ s⁻¹. In addition, the “EC50 (read off the curve)” value with human CD47 on cells [5] is roughly 0.3 nM. Also, in the assay with human CD47 on cells [7], the “EC50 values … of Jurkat cells” value stood at 0.43 nM. Moreover, the “IC50 (read off the curve)” value with human CD47 on cells [9] is roughly 0.5 nM.

B8: hSIRPα-Fc-mt12 (Fc fusion)
chain: EEELQVIQPDKSVSVAAGESAILHCTVTSLYPVGPIQWFRGAGPARELIYNQKGRRFPRVTTVSESTKRANMDFSISISNITPADAGTYYCVKFRKGSPDTEFKSGAGTELSVRAKPS[human IgG4 Fc with S228P (EU numbers) not listed]
notes: also called hSIRPα-mt12
Consider B8, for which, in the assay with human CD47 on cells [2], the “IC50 (read off the curve)” value is roughly 0.8 nM. In addition, the “EC50 (read off the curve)” value with human CD47 on cells [4] is roughly 0.4 nM. Further, the “EC50 (read off the curve)” value with human CD47 on cells [5] was roughly 0.3 nM. For the same molecule, the “EC50 values … of Jurkat cells” value in the assay with human CD47 on cells [7] amounted to 0.48 nM. For the same molecule, in the assay with CD47-ECD-His [8], the “Fold (compared to SIRPa wt in IgG4)” value stood at 7.74, binding was characterised by a dissociation constant (Kd) of 0.665 nM, the koff was 0.00062 s⁻¹ and the kon came out at 932000 M⁻¹ s⁻¹. Moreover, the “IC50 (read off the curve)” value in the assay with human CD47 on cells [9] was roughly 0.5 nM.

B9: hSIRPα-Fc-mt4 (Fc fusion)
chain: EEELQVIQPDKSVSVAAGESAILRCTVTSLWPVGPIQWFRGAGPARELIYNQKAFIFPRVTTVSESTKRGNMDFSISISNITPADAGTYYCVKFRKGSPDTEFKSGAGTELSVRAKPS[human IgG4 Fc with S228P (EU numbers) not listed]
notes: also called hSIRPα-mt4
Regarding B9, the “EC50 values … of Raji cells” value with human CD47 on cells [10] was determined as 0.06 nM. For the same molecule, the “IC50 (read off the curve)” value in the assay with human CD47 on cells [2] and with human CD47 on cells [9] was roughly 0.5 nM throughout. In addition, the “EC50 (read off the curve)” value is roughly 0.2 nM with human CD47 on cells [3], roughly 0.4 nM with human CD47 on cells [4], roughly 0.3 nM with human CD47 on cells [5] and roughly 0.3 nM in the assay with human CD47 on cells [6]. In addition, the “EC50 values … of FaDu cells” value in the assay with human CD47 on cells [11] was determined as 0.09 nM. The “Fold (compared to SIRPa wt in IgG4)” value with CD47-ECD-His [1] amounted to 48.2. Besides, binding in the assay with CD47-ECD-His [1] was characterised by a dissociation constant (Kd) of 0.0836 nM. The koff with CD47-ECD-His [1] is 9.95e-05 s⁻¹. This molecule returned a kon in the assay with CD47-ECD-His [1] of 1.19e+06 M⁻¹ s⁻¹. The binding result in [12] is “binds”. The “EC50 values … of Jurkat cells” value with human CD47 on cells [7] was 0.28 nM.

B10: hSIRPα-Fc-mt20 (Fc fusion)
chain: EEELQVIQPDKSVSVAAGESAILHCTVTQLIPVGPIQWFRGAGPARELIYNQKHRTFPRVTTVSENTKRENMDFSISISNITPADAGTYYCVKFRKGSPDTEFKSGAGTELSVRAKPS[human IgG4 Fc with S228P (EU numbers) not listed]
notes: also called hSIRPα-mt20
Molecule B10 had an EC50 with human CD47 on cells [15] of 0.247 nM.
